Measured values from PMC12136788.
Some of the results follow.

B1: chr8:93922960:93923061:+|CDS|ENSG00000164951|msi1|total|mutant (ssRNA)
RNA: GGGAGUUCUACAGUCCGACGAUCCGGCUCAUGGUCAGCAGUCACGCUGUCUAAUGACCACAAUGCUCAAAAUGAAAGAGAACCCGAACGGCUGAAAUUGGAACAUCCAAAGAGUGAGGCCAAGAGUGUCGUGAAACAGGAUCGCAACAGAGGAUUGAGCAUCA
B2: chr15:50499066:50499164:+|CDS_3pUTR|ENSG00000138592|msi1_unk|total|mutant (ssRNA)
RNA: GGGAGUUCUACAGUCCGACGAUCUACUUCAUUGGGACCACGAGUAACUGAUGCCGCCACAUAAGGAGACACCGGUUAUAAACCCGUUAUCUUUUAAAAGGCUCAGCAACACAACUCUUGAAAUGCUUAUCAGGAUAAUGGCCGCAACAGAGGAUUGAGCAUCA
B3: chr13:49912701:49915062:-|three_prime_utr|ENSG00000123178|control|control|control (ssRNA)
RNA: GGGAGUUCUACAGUCCGACGAUCACUUGUAUUUCUGCACUGUUAAAAAAUGUUCAUCAUUUAAUAAAACUUUACCUGGCCUAUAGAUGAAAAUAUAUUCUUAAAAAUAUGCUUGUUGAUGCUGUCUAAGGAACCAAUGUAUUCCAACAGAGGAUUGAGCAUCA
B4: chr20:3864521:3864622:+|CDS|ENSG00000088888|msi1|FALSE|bound_elsewhere (ssRNA)
RNA: GGGAGUUCUACAGUCCGACGAUCGCCCUGAAAGUGCCUGCCAACCCAGCAUCUGUCAGCACAGUGCCCUCCAAGUUGCCAACUAGCUCAAAGCCCCCUGGUGCAGUGCCUUCUAAUGCGCUCACCAAUCCAGCACCAUCCAAACAACAGAGGAUUGAGCAUCA
B5: chr1:213241816:213241921:+|CDS|ENSG00000136643|unk|total|mutant (ssRNA)
RNA: GGGAGUUCUACAGUCCGACGAUCGAGAAACACUAUGCACAGGAGGAUCCCAGGAUGUUAUUUGCCGCAGCUGUUGAUCACCGCCGUUCAGGAGAUAUGUCUUUGUUACCCAGCUCAGAUCCUAAGUUUCAAGGACUUGGAGUGCAACAGAGGAUUGAGCAUCA
B6: chr13:19993219:19993350:+|CDS|ENSG00000121741|unk|FALSE|unique (ssRNA)
RNA: GGGAGUUCUACAGUCCGACGAUCUGAUGAUGAUGUUGUUUUUAUCGAACCUGUACAACCUCCCCCACCUUCUGUACCAGUGGUAGCUGAUCAAAGAACCAUAACAUUUACAUCAUCAAAAAAUGAAGAACUACAAGGAAAUGACAACAGAGGAUUGAGCAUCA
B7: chr10:62095068:62095169:+|3pUTR|ENSG00000150347|msi1|total|mutant (ssRNA)
RNA: GGGAGUUCUACAGUCCGACGAUCCCAUUUGCUUCAAUUAAUUAUUUACCUUCCUGUGGAAUAAUAUAUAUAUAUAUAUUUAACCGAACCACCGACCGACCCGCCGAAUUCCGAUUAUAAAUGUGUGAGUGCAGAUUAUCCUGCCAACAGAGGAUUGAGCAUCA
B8: chr11:111497102:111497409:-|CDS|ENSG00000137707|control|control|control (ssRNA)
RNA: GGGAGUUCUACAGUCCGACGAUCGCCGUUAGUAGAGCCUCAUCAGACGUUUCCUCUGGCACUUCCUGCGAUGAAGAAAGUUGUAGCAAGGAACCUCGUGUCAUUCCUAAAGUCAGCAAUCCGAAGAGUAUUUAUCAGGUCAAGCAACAGAGGAUUGAGCAUCA
B9: chr5:72207278:72207408:+|3pUTR|ENSG00000131711|msi1_unk|total|mutant (ssRNA)
RNA: GGGAGUUCUACAGUCCGACGAUCAGAGAACAAUGACCUCAUUUUAUUUUCUAUGUCCGUUAUUUAUUUCAAAAUUAACAUUUCCGUUGAUUUUUGUCUGAUAAGUCUAUGUUUUGCACUGCUAACUAUGAUGAGGGUUUAAAACAACAGAGGAUUGAGCAUCA
B10: ENSG00000131504:stop:overlap|stop_codon|ENSG00000131504|stop_codon|NA|stop_codon (ssRNA)
RNA: GGGAGUUCUACAGUCCGACGAUCAGGAGGAGGAGACCUUUAAAUUGCCAACAGGAAGGCCGGGUGUGCAGUCACAUCUCUGCUAGCUUCGGAGCUGACCAAGGAUGAUGCCAUGGCUGCUGUUCCUGCCAAGGUGUCCAAGAACAACAGAGGAUUGAGCAUCA
B11: chr6:21231557:21231658:+|3pUTR|ENSG00000145996|msi1|total|mutant (ssRNA)
RNA: GGGAGUUCUACAGUCCGACGAUCAAGCCGCUGGGAUUACAGGCAUGCGCCACCAAGCCCAGACAAUUUUUUUGUGUUUUCAGCCGAGACGGAGUUUCACCAUGUUGGCCAGGCCCGUCUCGAACUCCUGACCUCAAGUGAUCCCAACAGAGGAUUGAGCAUCA
B12: chr10:96982068:96982170:+|CDS|ENSG00000196233|unk|total|mutant (ssRNA)
RNA: GGGAGUUCUACAGUCCGACGAUCUCAGCAUUGGCAUCAGAGGCAGUUUUCACUCCUAAGCAGACCCUUACAAUUCCAGCCCCCCGACAUACAGCCGAUGUGCAGCUUCCCAGAGAAGACAACCCUGAAGAACCCCGCAAGGAACAACAGAGGAUUGAGCAUCA
B13: chr20:45898604:45898705:+|3pUTR|ENSG00000064601|unk|FALSE|unique (ssRNA)
RNA: GGGAGUUCUACAGUCCGACGAUCAGAGCCCUGUACAUCCCAGACUGGGCCCAGGGUCUCCCAUAGACAGCCUGGGGGCAAGUUAGCACUUUAUUCCCGCAGCAGUUCCUGAAUGGGGUGGCCUGGCCCCUUCUCUGCUUAAAGCAACAGAGGAUUGAGCAUCA
B14: chr6:89084018:89084151:+|CDS|ENSG00000146278|unk|total|mutant (ssRNA)
RNA: GGGAGUUCUACAGUCCGACGAUCACUGAAGUGAGCCAAAAGGAAAAUUAUGCUGGGGCAAAGUUCCGUGAUCCACCUUCUCCCCGUGUUCUUCCAAAGCCUCCCCGUCACUGGAUGGGAAGCACUGUUGAAAAUUCCAACCAACAACAGAGGAUUGAGCAUCA

biological target: MSI1 full-length (mouse, UniProt Q61474 1-362); experiment: nsRBNS (natural sequence RNA bind-n-seq); RBNS binding buffer (assumed for nsRBNS): 25 mM Tris pH 7.5, 150 mM KCl, 3 mM MgCl2, 0.01% Triton X-100, 500 ug/ml BSA, 20 U/ml SUPERase-In, 4 C; UNK is unkempt and MSI1 is Musashi-1; names of the RNAs are library labels; protein concentration not given here; high values mean tight binding
UniProt Q61474, sequence (Q61474 whole entry): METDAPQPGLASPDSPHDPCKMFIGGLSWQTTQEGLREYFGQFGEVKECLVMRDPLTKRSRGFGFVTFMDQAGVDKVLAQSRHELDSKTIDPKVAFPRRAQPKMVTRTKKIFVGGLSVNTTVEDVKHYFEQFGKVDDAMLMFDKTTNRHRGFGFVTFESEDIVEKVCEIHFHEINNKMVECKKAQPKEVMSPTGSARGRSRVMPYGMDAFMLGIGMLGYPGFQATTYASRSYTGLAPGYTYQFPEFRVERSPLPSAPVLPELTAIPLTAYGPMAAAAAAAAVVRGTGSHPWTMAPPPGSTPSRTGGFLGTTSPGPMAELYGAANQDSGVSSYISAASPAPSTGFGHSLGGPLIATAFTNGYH

Row | Binder | binding signal
1 | B1 | 0.449 enrichment R
2 | B2 | 0.332 enrichment R
3 | B3 | 0.998 enrichment R
4 | B4 | 0.651 enrichment R
5 | B5 | 0.466 enrichment R
6 | B6 | 0.466 enrichment R
7 | B7 | 9.42 enrichment R
8 | B8 | 0.862 enrichment R
9 | B9 | 0.411 enrichment R
10 | B10 | 0.458 enrichment R
11 | B11 | 0.337 enrichment R
12 | B12 | 0.742 enrichment R
13 | B13 | 0.656 enrichment R
14 | B14 | 0.315 enrichment R
